The other results are listed elsewhere or left out.
System: PfSIP2 AP2 domain 1 (GST-tagged)
Assay: gcPBM binding intensity (ln(normalized median fluorescence intensity)); higher = stronger DNA binding
In short: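 The binding buffer was 1× PBS containing 1% milk, 0.2 mg/ml BSA, 0.5% salmon testes DNA and 0.03% Triton X-100. In it, GST-tagged P. falciparum DNA-binding domains expressed in E. coli were applied for 1 h to an Agilent 4 × 180k array of primer-extended double-stranded 36-bp intergenic genomic probes plus negative controls. Binding intensity, read with Alexa488 anti-GST antibody and a 488 nm scan, is the highest Masliner-normalised natural-log median intensity across replicate spots of either probe orientation.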

| Sequence | gcPBM binding intensity (ln) |
| --- | --- |
| AAAACATTTTCAAACTGTACACATAGAACTATGCAT [XGTACX_site4087] | 7.05 |
| ACATAAGAAGTTATATGTACATATATTTTTTAAATT [XGTACX_site8078] | 7.12 |
| TACACAAGAAAATTCACACACACACGGATATTTATA [CACACA_site7765] | 6.88 |
| GTATCGAAGTAAATACGTACTTAAATATGTTTAAAA [XGTACX_site1353] | 6.96 |
| ACGTACTGCCCTAAAGTGCATATATAATATAAACGA [GTGCAC_site9911] | 8.48 |
| CTTTAAACCCTGAACACACACAAATACAGACAAAAA [CACACA_site247] | 7.12 |
| GTATTTTAATATAAATGTACATAAATGTTATATATA [XGTACX_site3475] | 7.16 |
| AATATTGTATATAATAAACACACAATATTAAAAATA [CACACA_site8262] | 6.99 |
| CATATATAAATCATGTGTACGTATTGAGTATCTACT [XGTACX_site6278] | 7.34 |
| AGGATATATAATTAAGTGCATTAATTCAAAATAAAA [GTGCAC_site9702] | 8.36 |
| TTATTATTTTATAACACACACATATATATTATATCT [CACACA_site1434] | 7.02 |
| ATAAGATATGTATATACACACATTTATTTACCTATA [CACACA_site7521] | 7.02 |
| ATATGACTTAAATATGTGCGCATTTTTTTTTTTTTT | 7.45 |
| TATGGAAGAAAATATACACACAAAAAAAAAAAATGT [CACACA_site1486] | 6.96 |
| ATACTTTTATTTTTGGTGCATATATCATGTAGACGT | 10.2 |
| AATTTATTATTTGTATGTACTCATATGATTCACTTA [XGTACX_site2797] | 7.07 |
| AAATGAAATAAATGTAGTACACATATACAATATATA [XGTACX_site6951] | 6.96 |
| TATTTTTATACAATTTAACACGGGTTATAAAATGTA [CACACA_negctrl_site566] | 6.8 |
| TGTATATCATATATTTGTACTCAATTAATATAAACA [XGTACX_site3970] | 6.99 |
| ACATCTAATTTGTATACACACAATAATAAATGGTGA [CACACA_site824] | 7.11 |
| TATATATATTTATAATGTACATATTTTTTTTTATTT [XGTACX_site4761] | 7.41 |
| TTGTATATATGACTTTTTTATATTTCAATTTTGTGC [CACACA_negctrl_site296] | 6.94 |
| TATTAATTTTTAAACATAATTTTTCGTATAATATAT [CACACA_negctrl_site762] | 6.74 |

| Sequence | gcPBM binding intensity (ln) |
| --- | --- |
| GAGATAAAATAAAACACACACATATATTTATATAAC [CACACA_site7098] | 6.89 |
| TTTACTTTCTTATTTTCACACATTTAAAAAAAAATT [CACACA_site5949] | 7.53 |
| TTCCCTTTTGTAAAATGTACATATATATTTAAACAA [XGTACX_site3263] | 7.16 |
| TTTTTATTAAAATGTATTTTAGGAAAAAACAAAAAA [XGTACX_negctrl_site437] | 6.88 |
| TAAGTTCCCTTTGAATGTACATATAATGAAAAGAAA [XGTACX_site826] | 7.17 |
| AAAAAACTTTTAAGCACACACATAGATAATATAGAT [CACACA_site6835] | 7 |
| CAACATTTGAAACACACACACATACAAACAAACAAA [CACACA_site3306] | 7.2 |
| TTTTTTTTTTTTGTCACACATATTTGTATTAATCAT [CACACA_site5235] | 7.13 |
| AATATTAACAATCGCACACATATTATTTTTCCAAAA [CACACA_site4982] | 7.14 |
| TGAAATGGAAACAACTGTACAAAATAAATATGATAT [XGTACX_site1311] | 7.19 |
| ATATAAATATAGCATACACACAAAAAAATAAAATAA [CACACA_site2333] | 7.01 |
| TTACTCATGAAAGATACACACATTCATTATATATAT [CACACA_site3252] | 7.51 |
| TATATAAACCCGTACACACACATATATGTATATATA [CACACA_site3507] | 7.26 |
| AAATTTACAATACATTGTACATATTAATAATATTCC [XGTACX_site3646] | 6.76 |
| AGACATAAGATAATTACACACAATACATCCCTATAT [CACACA_site2227] | 6.92 |
| TACTTCTACAAGAGAAGTACAATATTTTTTATATTA [XGTACX_site8351] | 6.78 |
| AATAAAAATTTACTTTGTACACATATTAAATTCAAT [XGTACX_site1957] | 6.93 |
| TGTAGTTTGTCCCATGCATGTTCCATTAAAATATAT [TGCATGCA_site854] | 7.47 |
| TTAACGTAAAATATAGTGCATAGTATCATATTGATA [GTGCAC_site9527] | 8.02 |
| CAATCAAAGAAACACACACACACCTAAACATAAAAG [CACACA_site2756] | 7.01 |
| AATGTATATATGTAATGTACATATATAATGTATATA [XGTACX_site6510] | 7.04 |
| AAATGTGTTTATTTAACACACAAAAGAAAAAATATA [CACACA_site6993] | 6.82 |
| AATGTAAAATATATGTGTACATATGTTTATATATAT [XGTACX_site2216] | 7.55 |

| Sequence | gcPBM binding intensity (ln) |
| --- | --- |
| GTGTGTTGTATATACTGTACATACTTTATATATAGT [XGTACX_site1876] | 7.61 |
| TATAACAAGTAATGTTGTACATTGTATTATGTAATA [XGTACX_site6372] | 6.79 |
| AGATATATTATTAGGTGTACTATAAAATAAATTCAC [XGTACX_site221] | 7.17 |
| CGAACAAACAAATAAACACACAAAAAAAGATATATA [CACACA_site6944] | 6.68 |
| AAAAAAAATTAGGAAACATGCATGTCCCGATAAATA [TGCATGCA_site149] | 6.91 |
| AAAATCAAGTAGTATAAAGTAAGTATCATAAAAATA [CACACA_negctrl_site1554] | 6.89 |
| GTACACTAATTATGTGCACACAAATTAAAGGTCTAC [CACACA_site146] | 8.75 |
| ATAATAAAATGGAGAGTGCATACATGTTTATTTTAT | 8.78 |
| ACATAAAATAAATATACACACATATGTATATATTAT [CACACA_site3041] | 7 |
| ATAAAATATATATGCACACACATATATATTTCATAC [CACACA_site3547] | 7.24 |
| ATATATATATATATGTGTACTTATAAATATATCTGT [XGTACX_site4337] | 9.39 |
| AAAAGAATTTAGAAGGCATGCACTTAAACATGGATA [TGCATGCA_site699] | 7.9 |
| TAAATATTTTATTGTACACACTTTTTATGAATGATG [CACACA_site5694] | 7.2 |
| ATATCCCATATGTAATGTACTTACACTTTCTTAATT [XGTACX_site7020] | 7.02 |
| AATATTTAAAACAAATCACACATGTATCCATAAATG [CACACA_site5308] | 6.91 |
| AGGGAATAATATTAATGTACATATATGAACTTGTTT [XGTACX_site6089] | 6.85 |
| TATAAAAAGGAAAAATAAAAATAAAAATAAAAATTA [CACACA_negctrl_site1822] | 6.51 |
| TCTTTTAAAAATTAAGTGCATGTCCTTATAACAAAA | 8.65 |
| ATATTTATATATATATGTACATATGTGTGTTTTTAT [XGTACX_site3956] | 7.16 |
| AAAAAAATAATGTACACACACATATCTGTTTATATA [CACACA_site4270] | 6.94 |
| ATATATAACTTTTCTTAACACACAAAAAACAAAAAT [CACACA_site8748] | 7.3 |
| TCATAAACATTATGCACACAAAAATAAAAAAAAATA [CACACA_site1115] | 7.52 |
| AAGAAAAACTTTACGTGTACCAAACATCCTGCCGAC [XGTACX_site4895] | 6.74 |

| Sequence | gcPBM binding intensity (ln) |
| --- | --- |
| GTATTCTACAGACACATACACACATATATATATATA [CACACA_site3427] | 9.71 |
| AAAAAATAATTGAAGTGTACGTACAATGATTTTACT [XGTACX_site7663] | 6.99 |
| GGGAGAAATTTATACATACACACATATATATATTAT [CACACA_site4039] | 7.17 |
| TTATAATATTGTGGTATACACACCTTACAAAAAGGT [CACACA_site2878] | 7.03 |
| TTTATTTTCATATGAACACACATATATATATTATAA [CACACA_site2369] | 7.13 |
| TGTTCTGAACGGTTCATGCACTTTTTTTTGTTAATT | 7.84 |
| CTGTTTTTGTTTTAAAGTACATTGTTCAATATACAT [XGTACX_site5288] | 7.5 |
| TACAATGTGGATAATTGTACAAAACCGATAAGAGGG [XGTACX_site6453] | 7.7 |
| TATATTCTACAAGAATTATGAATTGTCAGACCAAAT [CACACA_negctrl_site1101] | 6.87 |
| TTATATACCCTAATATGTTTTATTATTATTATATAT [TGCATGCA_negctrl_site6] | 6.87 |
| ATATAAATAATATAAATACACACTAAAAAAAATATA [CACACA_site542] | 7.09 |
| ATAATTTATATTCAGAAACACACGAAAAAAAAAAAT [CACACA_site1296] | 7.21 |
| AACTAAACAAAAGTTACACACATCATACGATATTAT [CACACA_site3180] | 6.78 |
| TATATTATATACGTCTGTACACAAATGAGAGGTAAA [XGTACX_site5538] | 7.61 |
| ACCATATAATTTTTTTGTACATAATGATTTTTTTTT [XGTACX_site1104] | 7.11 |
| ATGTTAAGAATAATTAGTACTTACATATGTATAATA [XGTACX_site4419] | 6.93 |
| TTATAAAAAAAAAAAAAAAATATATATATATATATA [XGTACX_negctrl_site592] | 9.62 |
| AAAAAATAATAATAAAATGAATAGATATGTATTTAT [TGCATGCA_negctrl_site210] | 6.92 |
| AATAATATATATTGTACACACAAAATGGGAAAAAAA [CACACA_site5100] | 7.07 |
| ATATATATATATATTTGTACAGAAAATATTTTAATA [XGTACX_site3706] | 9.47 |
